± gives the standard deviation. Only a part is listed here, and it is no random draw.

The subject of this assay is MIWI (PIWIL1) piRISC loaded with piRNA #1 (30 nt). The assay can be described thus: pre-steady-state target cleavage rate (min^-1); MIWI and MILI are mouse PIWI proteins and EfPiwi is from a freshwater sponge; tags in brackets are library labels; higher = faster piRNA-guided slicing of the target. The conditions noted are these: guide: piRNA #1 5'p-UGAGGUAGUAGGUUGUAUAGUAUCCAGAGG; auxiliary factor: 500 nM mouse GTSF1. Put shortly:
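The method was Cleave-'n-Seq, in which uncleaved targets from a transcribed, DNA-blocked target RNA library were sequenced after exposure to active affinity-purified piRISC carrying one synthetic guide, with or without GTSF1 partner protein. Reactions contained 0.1 nM library, 1 nM piRISC and, where present, 500 nM GTSF1 in HEPES–potassium acetate buffer at 33 °C for 0–8 or 0–960 min. Reads were normalised to depth and to weakly complementary targets, three trials were pooled, and k3 was capped at 0.0001 min^-1. The pre-steady-state cleavage rate came from a burst-and-steady-state fit.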
Consider GGAGACGAUACUAUACAACCAACUACCUCA, for which the “pre-steady-state target cleavage rate” value was 0.175 ± 0.017.

For the sequence GGAGACGAUACUAUACAACGUACUACCUGA, the “pre-steady-state target cleavage rate” value was found to be 0.283 ± 0.041.

As to GGAGACCAUACAAUACAAGCUACUACCUCA, the “pre-steady-state target cleavage rate” value came to 0.459 ± 0.048.

For the sequence GGAGACCUAUGUAUACAACCUACUGACCUCA, the “pre-steady-state target cleavage rate” value came to 0.0582 ± 0.013.

Take CCUCUGGAUUCUAUACAACCUACUACCUGA: the “pre-steady-state target cleavage rate” value was 0.501 ± 0.076.

For GGACUGGAUACUAUACAACCUUCUUCCUCA, the “pre-steady-state target cleavage rate” value was 0.00382 ± 0.0027.

In the case of GGUCUGGAUACUAUACUACCUACUACCUGA, the “pre-steady-state target cleavage rate” value was 0.803 ± 0.12.

Consider GCUCUGGUUAGUAUACAACCUACUACCUCA, for which the “pre-steady-state target cleavage rate” value stood at 1.3 ± 0.072.

On to GGAGACGAUACAUACAACCUACUACCUCA, for which the “pre-steady-state target cleavage rate” value worked out at 1.11 ± 0.1.

For GGAGUGGAUACUUUACUACCUACUACCUCA, the “pre-steady-state target cleavage rate” value was determined as 0.884 ± 0.077.

With GCUCUGGAUACUAUACAACCUACUUCGUCA, the “pre-steady-state target cleavage rate” value turned out to be 0.328 ± 0.045.

As for GGAGACCAUACAAUACAACCUACUACCACA, the “pre-steady-state target cleavage rate” value was found to be 0.654 ± 0.1.

Consider GGACAGGAUACUAUUCAACCUACUACCUCA, for which the “pre-steady-state target cleavage rate” value was 1.69 ± 0.11.

For GGACUGGUUACUAUACAACCUUCUACCUCA, the “pre-steady-state target cleavage rate” value stood at 0.625 ± 0.056.

As for GGUCUGGAUACUAUACAACAUACUACCUCA, the “pre-steady-state target cleavage rate” value was determined as 1.24 ± 0.07.

In the case of CCUCGGAUACUAUACAACCUACUACCUCA, the “pre-steady-state target cleavage rate” value came to 1.96 ± 0.13.

With GGAGUGGAUACUAUACAACUUACUACCUCA, the “pre-steady-state target cleavage rate” value is 0.525 ± 0.021.

As to GGAGACCUAUGUAUACAGCCUACUACCUCA, the “pre-steady-state target cleavage rate” value amounted to 0.0168 ± 0.0042.

As to GGACUGCAAACUAUACAACCUACUACCUCA, the “pre-steady-state target cleavage rate” value stood at 0.971 ± 0.094.

With GGAGACCUAUGUAUACAACCUACUACCUA, the “pre-steady-state target cleavage rate” value is 0.0953 ± 0.013.

As for GGAGUGGAUACUUUACAACCUACAACCUCA, the “pre-steady-state target cleavage rate” value was found to be 0.0832 ± 0.013.

Take GCUCUGGAUACUAUACAACCAUACUACCUCA: the “pre-steady-state target cleavage rate” value was 0.00752 ± 0.0037.

On to GGAGAGGUUACUAUACAACCAACUACCUCA, for which the “pre-steady-state target cleavage rate” value worked out at 0.109 ± 0.0084.

On to GGAGACCAUACUAUAGUUCCUACUACCUCA, for which the “pre-steady-state target cleavage rate” value turned out to be 0.00917 ± 0.0016.

Regarding GGAGACCUUACUAUACAUCCUACAACCUCA, the “pre-steady-state target cleavage rate” value amounted to 0.424 ± 0.041.

Regarding GGACUGGAUACUAUACUACCUUCUACCUCA, the “pre-steady-state target cleavage rate” value is 0.219 ± 0.024.

GGUCUGGAUACUAUACUACCUACUUCCUCA: the “pre-steady-state target cleavage rate” value came to 0.155 ± 0.029.

With GCUGACGAUACUAUACAACCUACUACCUCA, the “pre-steady-state target cleavage rate” value was found to be 1.84 ± 0.1.

GGAGAGGAUAGAUUACAACCUACUACCUCA: the “pre-steady-state target cleavage rate” value amounted to 0.178 ± 0.019.

For the sequence GGAGUGGAAACUAUACAUCCUACUACCUCA, the “pre-steady-state target cleavage rate” value worked out at 1.12 ± 0.062.

For the sequence GGAGACCAAAGUAUACAACCUACUACCUCA, the “pre-steady-state target cleavage rate” value amounted to 0.163 ± 0.022.

Regarding GGAGACGUAUCUAUACAACCUACUACCUCA, the “pre-steady-state target cleavage rate” value is 1.32 ± 0.12.

Take GCUGUGGAUACUAUACAUCCUACUACCUCA: the “pre-steady-state target cleavage rate” value came out at 1.61 ± 0.092.

Regarding CCUCUGGAUACUAUACAACCUGCUACCUCA, the “pre-steady-state target cleavage rate” value was found to be 0.768 ± 0.04.

Take GGACUGGAUACUAUACUACGUACUACCUCA: the “pre-steady-state target cleavage rate” value worked out at 0.365 ± 0.055.

Consider CCUCUGCAUACUAUAGAACCUACUACCUCA, for which the “pre-steady-state target cleavage rate” value came out at 0.979 ± 0.051.

As to GGAGACGAAACUAUACAACCUACUACCUCA, the “pre-steady-state target cleavage rate” value was found to be 1.46 ± 0.12.

On to GGAGACCUUACUAUACAACCUACUUCCACA, for which the “pre-steady-state target cleavage rate” value turned out to be 0.13 ± 0.025.

CCUCUGGAUACUCAUACAACCUACUACCUCA: the “pre-steady-state target cleavage rate” value is 1.54 ± 0.083.

As to “GGAGACCAUACUAUACAACCUACUUGGAGA [g7:g23:cont:t1A]”, the “pre-steady-state target cleavage rate” value is 0.0643 ± 0.017.

Values taken from the supplement of paper PMC10338343.
